# Experimental data as given in a collection of fitness landscapes (doi:10.1016/j.celrep.2020.107928).
# The full ranking holds about 81,000 sequences; the median of “one-hybrid fitness for binding parS DNA” is about -0.17, and the highest 2% start at about 0.51. Some of the results follow.
# B1: Caulobacter ParB omega fusion; a variant is named by its letters at X, in order, B8GW30 (parent)
# chain: MESVVVGEPGMSEGRRGLGRGLSALLGEVDAAPAQAPGEQLGGSREAPIEILQRNPDQPRRTFREEDLEDLSNSIREKGVLQPILVRPSPDTAGEYQIVAGERAWRAAQRAGLKTVPIMVRELDDLAVLEIGIIENVQRADLNVLEEALSYKVLMEKFERTQENIAQTIGKSXSHVANXMRLLXLPDEVQSYLVSGELTAXHARAIAAAADPVALAKQIIEGGLSVRETEALARKAPNLSAGKSKGGRPPRVKDTDTQALESDLSSVLGLDVSIDHRGSTGTLTITYATLEQLDDLCNRLTRGI
# Variants of: B1
# Assay: one-hybrid fitness for binding parS DNA (scaled: cognate 1, non-cognate 0); higher = stronger binding
# Conditions: with parS DNA site
# Method in brief: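 The reporter was HIS3, with the binding site 19 bp from the promoter, in E. coli USO used for bacterial one-hybrid selection of Caulobacter ParB libraries with four specificity codons randomised. Growth was on M9 lacking histidine, with 0.1 mM IPTG and 5 mM 3-AT, for 48 hours at 37°C. Illumina sequencing covered plasmids before and after selection; three replicate libraries were pooled and variants with under 10 reads dropped. A fitness score is the log change in variant-to-wild-type read ratio, rescaled to the cognate and non-cognate references.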
row,Variant,one-hybrid fitness for binding parS DNA
1,DRRT,≤ 0.2
2,EPRM,≤ 0.2
3,YRCS,0.245
4,TDTR,≤ 0.2
5,DESL,≤ 0.2
6,RWTK,≤ 0.2
7,DEPV,≤ 0.2
8,MRKV,≤ 0.2
9,NGKK,≤ 0.2
10,QFTG,≤ 0.2
11,ESIS,≤ 0.2
12,IRNV,≤ 0.2
13,YSQQ,≤ 0.2
14,GAVI,≤ 0.2
15,CVPI,≤ 0.2
16,KSLN,≤ 0.2
17,TPIC,≤ 0.2
18,LQRL,≤ 0.2
19,LQHG,≤ 0.2
20,NDHG,≤ 0.2
21,RLSF,0.246
22,STCT,≤ 0.2
23,RYAF,0.208
24,CGSK,≤ 0.2
25,DGKS,≤ 0.2
26,VEVS,≤ 0.2

row,Variant,one-hybrid fitness for binding parS DNA
1,TLQL,≤ 0.2
2,MQNW,≤ 0.2
3,QQDG,≤ 0.2
4,NFVA,≤ 0.2
5,LTSC,≤ 0.2
6,KYSS,≤ 0.2
7,SAKC,≤ 0.2
8,RGFT,0.455
9,PNKW,≤ 0.2
10,SVYS,≤ 0.2
11,LEMF,≤ 0.2
12,ASFL,≤ 0.2
13,LDDD,≤ 0.2
14,TPPY,≤ 0.2
15,GYPY,≤ 0.2
16,VNPV,≤ 0.2
17,IMST,≤ 0.2
18,FSFV,≤ 0.2
19,VLNT,≤ 0.2
20,MGLW,≤ 0.2
21,GLQD,≤ 0.2
22,GAKV,≤ 0.2
23,TWIR,≤ 0.2
24,KCLV,≤ 0.2
25,RSMK,≤ 0.2
26,DGHC,≤ 0.2

row,Variant,one-hybrid fitness for binding parS DNA
1,SRDT,≤ 0.2
2,QGFT,≤ 0.2
3,GFNS,≤ 0.2
4,RYDE,≤ 0.2
5,AVYS,≤ 0.2
6,SIVG,≤ 0.2
7,EMYL,≤ 0.2
8,ANNG,≤ 0.2
9,RDAF,≤ 0.2
10,QDWV,≤ 0.2
11,PIYR,≤ 0.2
12,QFTQ,≤ 0.2
13,MITP,≤ 0.2
14,IYHT,≤ 0.2
15,EEQR,≤ 0.2
16,KVNY,≤ 0.2
17,NRVQ,≤ 0.2
18,QIDH,≤ 0.2
19,NGRL,≤ 0.2
20,QYVG,≤ 0.2
21,DTTY,≤ 0.2
22,NVAS,≤ 0.2
23,HYHS,≤ 0.2
24,HHWC,≤ 0.2
25,HQIN,≤ 0.2
26,VGNC,≤ 0.2

row,Variant,one-hybrid fitness for binding parS DNA
1,HAQS,≤ 0.2
2,KTRI,≤ 0.2
3,PCGH,≤ 0.2
4,SSQI,≤ 0.2
5,LGML,≤ 0.2
6,QAYY,≤ 0.2
7,IRME,≤ 0.2
8,ANKL,≤ 0.2
9,YAEG,≤ 0.2
10,VDHL,≤ 0.2
11,NADS,≤ 0.2
12,RYTE,≤ 0.2
13,TCMR,≤ 0.2
14,YLIS,≤ 0.2
15,MDRP,≤ 0.2
16,CRTN,≤ 0.2
17,WARC,≤ 0.2
18,HRKW,≤ 0.2
19,LGTA,≤ 0.2
20,GDSP,≤ 0.2
21,YCDY,≤ 0.2
22,SLPD,≤ 0.2
23,MIWG,≤ 0.2
24,QHQC,≤ 0.2
25,RSRP,≤ 0.2
26,TQQI,≤ 0.2

row,Variant,one-hybrid fitness for binding parS DNA
1,IQML,≤ 0.2
2,HCIS,≤ 0.2
3,RSRA,0.605
4,VTCT,≤ 0.2
5,MLEF,≤ 0.2
6,TVTS,≤ 0.2
7,TRGC,≤ 0.2
8,GMCR,≤ 0.2
9,DRVW,≤ 0.2
10,GSSH,≤ 0.2
11,RLKM,0.399
12,CVFR,≤ 0.2
13,QIWW,≤ 0.2
14,NHMR,≤ 0.2
15,SMQN,≤ 0.2
16,VRHW,≤ 0.2
17,WQTP,≤ 0.2
18,SCRY,≤ 0.2
19,QFFR,≤ 0.2
20,WDTS,≤ 0.2
21,SQEY,≤ 0.2
22,PLQL,≤ 0.2
23,CVNC,≤ 0.2
24,FCMC,≤ 0.2
25,RLQV,≤ 0.2
26,GYHF,≤ 0.2

row,Variant,one-hybrid fitness for binding parS DNA
1,YWPL,≤ 0.2
2,TDNY,≤ 0.2
3,KFHC,≤ 0.2
4,CYRV,≤ 0.2
5,CGFT,≤ 0.2
6,NPFD,≤ 0.2
7,GIVL,≤ 0.2
8,PPAL,≤ 0.2
9,CILD,≤ 0.2
10,TASM,≤ 0.2
11,EPHR,≤ 0.2
12,QGTI,≤ 0.2
13,HTHC,≤ 0.2
14,WSFC,≤ 0.2
15,FYDL,≤ 0.2
16,PGEL,≤ 0.2
17,TVVC,≤ 0.2
18,HSAY,≤ 0.2
19,VNQT,≤ 0.2
20,RVCW,0.255
21,RDSY,≤ 0.2
22,LGYR,≤ 0.2
23,QGWD,≤ 0.2
